Laboratory results from PubChem BioAssay AID686979 (National Center for Advancing Translational Sciences (NCATS), 2013).
Among all 420,000 compounds or so, about 50,000 (12%) were called active. The inconclusive results got no clear call from the source; some entries with a clear call stand among them for comparison. Calls follow the shape of the dose curve; as a rule, active = well fitted inhibition curve with a large enough effect; inconclusive = small, poorly fitted or top-dose-only effect; inactive = flat fitted curve, though single readings scatter. No potency is given beside an inconclusive call; the fits are too rough.

test: qHTS for Inhibitors of human tyrosyl-DNA phosphodiesterase 1 (TDP1): qHTS in cells in presence of CPT; conditions: chicken DT40 Tdp1-/-;hTDP1 cells + 20 nM CPT, ATP luminescence, 48 h; activity change, negative = growth inhibition: at 46.2 µM (top of the series) unless noted; also: nearly all actives have a fitted effect of over 55% in size
Method in brief: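 Chicken DT40 Tdp1-/- cells complemented with human TDP1, 400 cells/well, exposed to compounds plus 20 nM camptothecin for at least 48 h at 37 C; viability read as ATP content by CellTiter-Glo luminescence.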
% is scaled to controls: 0 for no effect and ±100 for the full control effect; potency is read from the fitted curve at half-maximal effect; tags tell the direction and shape of the fitted curve.

SMILES | Potency | activity change, negative = growth inhibition
Cc1c(Cl)ccc2c(C(=O)NCCN3CCCCC3)cc(-c3ccccn3)nc12 | inconclusive [inhibitor, single point] | –
CCOC(=O)N1CCN(C(=O)C2CCC(=O)N(Cc3ccc(Cl)cc3)C2)CC1 (stereo not given) | inactive | –
Clc1cccc(-c2nc(NCCCN3CCOCC3)c3ccccc3n2)c1 | inconclusive [inhibitor, single point] | –
CSc1ccc(-c2ccc3c(c2)c(Sc2ccccc2)c(-c2ccccc2)n3C)cc1 | inactive | –
COc1ccc(-c2cnnn2-c2ccc(NC(=O)c3c(F)cccc3F)cc2)cc1 | active: 11.6 µM | –
CC(C)(C)c1ccc(NC(=O)CSc2n[nH]c(=O)n2-c2cccnc2)cc1 | inconclusive [inhibitor, single point] | –
Cn1c(N2CCCCC2)nc2c1c(=O)[nH]c(=O)n2C | inactive | –
CCCCCC(=O)Nc1ccc(C(=O)COC(=O)Cn2cnc3c2c(=O)n(C)c(=O)n3C)cc1 | inactive | –
CCOC(=O)c1cnc2cc(Cl)c(OC)cc2c1NCC1CCCO1 (stereo not given) | inconclusive [inhibitor, single point] | –
COc1ccc2c(Cl)c(C(=O)NN3CCN(C)CC3)sc2c1 | inconclusive [inhibitor, single point] | –
CCOc1ccc(S(=O)(=O)Nc2ccc(C(=O)NCC(C)(C)N3CCOCC3)cc2)cc1 | – | inconclusive: 1.68% [inhibitor]
CCc1ccc(/C(C)=N/NC(=O)c2c[nH]c3ccccc23)s1 | inconclusive [inhibitor, single point] | –
COc1ccc(CNS(=O)(=O)c2ccc3c(c2)CCN3C(=O)C2CC2)cc1 | inconclusive [inhibitor, single point] | –
CCCCN(C(=O)C1CCCC1)c1c(N)n(CCC)c(=O)[nH]c1=O | inactive | –
CN1CCN(c2ccccc2NC(=O)c2cccc(OCc3ccccc3)c2)CC1 | inconclusive [inhibitor, single point] | –
CCC(Sc1nc2n[nH]c(C)c2c(=N)n1-c1cccc(Cl)c1)C(=O)NCCOC (stereo not given) | active: 23.1 µM | –
Cc1ccc(-c2nc3ccccc3nc2-c2ccccc2)cc1 | inconclusive [inhibitor, single point] | –
COc1cc2c(cc1NC(=O)COC(=O)CNS(=O)(=O)c1ccc(C)cc1)oc1ccccc12 | inactive | –
CN(C)C(=O)c1cc2c(c(-c3cccc(C4=CCCCC4)c3)n1)[C@@H](CCO)N(S(=O)C(C)(C)C)C2 (stereo not given in full) | inactive | –
CC(C)Cn1cc(C(=O)N2CCOCC2)c2c3ccccc3n(C)c2c1=O | inactive | –
CCCCCC(=O)Nc1ccc(C(=O)COC(=O)CN2C(=O)NC3(CCCC3)C2=O)cc1 | inactive | –
COc1cccc(CN(C)C(=O)CC[C@H]2O[C@@H](n3ccc(=O)[nH]c3=O)[C@H](O)[C@@H]2O)c1 | inactive | –
O=C1C2C3C=CC(C3)C2C(=O)N1/N=C/c1ccc(-c2ccccc2[N+](=O)[O-])o1 (stereo not given) | inconclusive [inhibitor, single point] | –

SMILES | Potency | activity change, negative = growth inhibition
COC(=O)C1=NNC2(c3ccc(C)cc3)C(=O)N(c3cccc(C)c3C)C(=O)C12 (stereo not given) | inactive | –
O=C(CSc1nnc(COc2ccccc2F)n1-c1ccccc1)NC1CCS(=O)(=O)C1 (stereo not given) | inconclusive [inhibitor, single point] | –
CCOC(=O)c1cnc2cc(-c3ccc(Cl)cc3)nn2c1-c1ccccc1 | inconclusive [inhibitor, single point] | –
CC(C)Cn1c(=O)c2ccccc2n2c(CCC(=O)Nc3cccc(Cl)c3)nnc12 | inconclusive [inhibitor, single point] | –
COc1cccc(Oc2nc(-c3ccncc3)nc3ccccc23)c1 | active: 14.6 µM | –
CCOn1c(=O)c(-c2ccc(Br)cc2)[n+]([O-])c2ccccc21 | inactive | –
COc1ccc(CN(C)S(=O)(=O)c2nnc(NC(=O)c3cccc(F)c3)s2)cc1OC | inconclusive [inhibitor, single point] | –
C[C@@H]1CN([C@H](C)CO)C(=O)CCCn2nncc2CO[C@H]1CN(C)Cc1ccccc1C(=O)O | inactive | –
COc1ccc(C2=NOC(C(=O)NCc3ccccn3)C2)cc1OC (stereo not given) | inconclusive [inhibitor, single point] | –
O=C(COC(=O)CN1CCSC1=O)Nc1ccc(F)cc1Cl | inactive | –
CCCCCC(=O)NC(Cc1ccc(OC)c([N+](=O)[O-])c1)C(=O)O (stereo not given) | inconclusive [inhibitor, single point] | –
Cc1ccc(NC(=O)Cn2c(=O)n(CCCCCC(=O)NCc3ccc(F)cc3)c(=O)c3sccc32)cc1C | inconclusive [inhibitor, single point] | –
O=S(=O)(NC1c2cccc3cccc(c23)C1N1CCN(CCO)CC1)c1ccccc1 (stereo not given) | inconclusive [inhibitor, single point] | –
FC(F)(F)c1cccc(Cn2nnnc2-c2cccc(C(F)(F)F)c2)c1 | inactive | –
CCCOc1ccc(-c2nn(-c3ccccc3)cc2C2NC(=O)NC(C)=C2C(=O)OC(C)C)cc1 (stereo not given) | inconclusive [inhibitor, single point] | –
O=c1cc(-c2ccc(Cl)cc2)[nH]c2ccccc12 | active: 4.11 µM | –
CCOc1ccccc1N(CC)C(=O)c1nn(C)c2c1CSc1ccccc1-2 | active: 25.9 µM | –
OC(CCN1CCCC1)(c1ccccc1)C1CCCCC1 (stereo not given) | inconclusive [inhibitor, single point] | –
CC(C)c1ccc(NC(=O)c2cc(S(=O)(=O)NCC3COc4ccccc4O3)ccc2F)cc1 (stereo not given) | active: 23.1 µM | –
COc1ccc(N2CCN(S(=O)(=O)c3cc4c5c(c3)C(C)C(=O)N5CCC4)CC2)cc1 (stereo not given) | inconclusive [inhibitor, single point] | –
COc1cc(-c2nnc(SCC(=O)NCc3ccccc3Cl)o2)cc(OC)c1OC | inconclusive [inhibitor, full curve] | –
CCOc1ccc(Cn2nnc3c(=O)[nH]c(C4CCN(C(=O)c5ccccc5)CC4)nc32)cc1 | inconclusive [inhibitor, single point] | –
